# This is a noisy data set.
# Test: amyloid nucleation score relative to library mode (yeast Sup35 reporter selection) (log enrichment difference); higher = more amyloid nucleation; sequences are the first 22 residues of the Bri2 peptide extended by up to 12 random residues
# Conditions: random library (experiment): 1;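 active = nucleation score significantly above 0 at FDR 0.05; inactive = not significantly above 0 or absent from output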
# 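Further: [psi-pin-] Saccharomyces cerevisiae expressing SupN fusions, induced by 100 µM Cu2SO4, selected 7 d at 30 °C without adenine and uracil, scored by deep sequencing of output versus input.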
row,Sequence,amyloid nucleation score
1,EASNCFAIRHFENKFAVETLICYCGTNASFTGFG,8.72
2,EASNCFAIRHFENKFAVETLICYCGVGTRVPIVM,inactive
3,EASNCFAIRHFENKFAVETLICYCKEAYVAPSMC,inactive
4,EASNCFAIRHFENKFAVETLICYCKYLKIPNLIL,-0.302
5,EASNCFAIRHFENKFAVETLICYCLIASGMQTLD,5.19
6,EASNCFAIRHFENKFAVETLICYCNSARCEYLEA,4.13
7,EASNCFAIRHFENKFAVETLICYCRCRMMRSLPW,inactive
8,EASNCFAIRHFENKFAVETLICYCRKGSL,2.75
9,EASNCFAIRHFENKFAVETLICYCSCDSVMIGNY,7.27
10,EASNCFAIRHFENKFAVETLICYCSCSVSGYKRR,8.95
11,EASNCFAIRHFENKFAVETLICYCSCTQFESSVT,8.29
12,EASNCFAIRHFENKFAVETLICYCSRDVVEGRGK,5.7
13,EASNCFAIRHFENKFAVETLICYCV,inactive
14,EASNCFAIRHFENKFAVETLICYCVFCIVELFGD,inactive
15,EASNCFAIRHFENKFAVETLICYCVKLWYSPSYP,inactive
16,EASNCFAIRHFENKFAVETLICYCVQAL,5.3
17,EASNCFAIRHFENKFAVETLICYCYRVYGAVVGE,inactive
18,EASNCFAIRHFENKFAVETLICYDAEGSWGVVVQ,inactive
19,EASNCFAIRHFENKFAVETLICYDAWLWKDLTT,inactive
20,EASNCFAIRHFENKFAVETLICYDITLCRVSGNG,1.38
21,EASNCFAIRHFENKFAVETLICYDKYRQHPSGSC,2.39
22,EASNCFAIRHFENKFAVETLICYDLLRAL,inactive
23,EASNCFAIRHFENKFAVETLICYDMLR,inactive

row,Sequence,amyloid nucleation score
1,EASNCFAIRHFENKFAVETLICYDRGTQGILVR,inactive
2,EASNCFAIRHFENKFAVETLICYDRHVLSRLTLA,inactive
3,EASNCFAIRHFENKFAVETLICYDSRSGPGWLLR,4.7
4,EASNCFAIRHFENKFAVETLICYDVDGQDRYFCG,inactive
5,EASNCFAIRHFENKFAVETLICYE,1.56
6,EASNCFAIRHFENKFAVETLICYEACP,inactive
7,EASNCFAIRHFENKFAVETLICYEGSSPG,inactive
8,EASNCFAIRHFENKFAVETLICYEGVAQSVRESG,inactive
9,EASNCFAIRHFENKFAVETLICYELWAKGTWLGV,inactive
10,EASNCFAIRHFENKFAVETLICYEMGWVMTVWQW,1.53
11,EASNCFAIRHFENKFAVETLICYEQTCYC,inactive
12,EASNCFAIRHFENKFAVETLICYERAMPNWGREL,1.57
13,EASNCFAIRHFENKFAVETLICYERTEWTRGSVV,inactive
14,EASNCFAIRHFENKFAVETLICYEWSLR,inactive
15,EASNCFAIRHFENKFAVETLICYEWSVELSVW,0.864
16,EASNCFAIRHFENKFAVETLICYF,8.28
17,EASNCFAIRHFENKFAVETLICYFDLHN,7.99
18,EASNCFAIRHFENKFAVETLICYFGL,8.11
19,EASNCFAIRHFENKFAVETLICYFHMDACSYFLD,inactive
20,EASNCFAIRHFENKFAVETLICYFILWMVWARDP,inactive
21,EASNCFAIRHFENKFAVETLICYFLC,6.99
22,EASNCFAIRHFENKFAVETLICYFLDLR,inactive
23,EASNCFAIRHFENKFAVETLICYFQRRWTIEV,inactive

# Same assay, conditions: random library (experiment): 2
row,Sequence,amyloid nucleation score
1,EASNCFAIRHFENKFAVETLICYCEHLGNLANTV,inactive
2,EASNCFAIRHFENKFAVETLICYCGYNEQERCLI,inactive
3,EASNCFAIRHFENKFAVETLICYCIQND,8.32
4,EASNCFAIRHFENKFAVETLICYCKRTRGIPAIT,inactive
5,EASNCFAIRHFENKFAVETLICYCLCMRSPCGVV,5.02
6,EASNCFAIRHFENKFAVETLICYCLDIRYPMYFA,inactive
7,EASNCFAIRHFENKFAVETLICYCLFYQDYEVKG,inactive
8,EASNCFAIRHFENKFAVETLICYCLSSFKYVLYR,2.92
9,EASNCFAIRHFENKFAVETLICYCMAVNVLYGIL,inactive
10,EASNCFAIRHFENKFAVETLICYCMTCEIGGAFN,7.72
11,EASNCFAIRHFENKFAVETLICYCSCLLLCWRHK,3.98
12,EASNCFAIRHFENKFAVETLICYCSHLRRNGQHT,3.72
13,EASNCFAIRHFENKFAVETLICYCTGNFSLGVWR,5.37
14,EASNCFAIRHFENKFAVETLICYCTWSFYSHKVF,inactive
15,EASNCFAIRHFENKFAVETLICYCVSMRVSLQWN,inactive
16,EASNCFAIRHFENKFAVETLICYCWLYRVDRGFT,inactive
17,EASNCFAIRHFENKFAVETLICYD,inactive
18,EASNCFAIRHFENKFAVETLICYDGVFMTAMRSW,inactive
19,EASNCFAIRHFENKFAVETLICYDGYKGSMVVRL,inactive
20,EASNCFAIRHFENKFAVETLICYDIPAVLCSA,inactive
21,EASNCFAIRHFENKFAVETLICYDKYKHLALSNC,0
22,EASNCFAIRHFENKFAVETLICYDMRYSFLRMFG,inactive
23,EASNCFAIRHFENKFAVETLICYDNFIR,0.416
24,EASNCFAIRHFENKFAVETLICYDNVP,inactive
25,EASNCFAIRHFENKFAVETLICYDPMIE,inactive
26,EASNCFAIRHFENKFAVETLICYDPYYSSGTS,1.58
27,EASNCFAIRHFENKFAVETLICYDSAFLRRTPPT,4.49

row,Sequence,amyloid nucleation score
1,EASNCFAIRHFENKFAVETLICYDSHRGVLRYKS,2.46
2,EASNCFAIRHFENKFAVETLICYDSVRMRMLSGV,3.52
3,EASNCFAIRHFENKFAVETLICYDVELVSLIRYL,inactive
4,EASNCFAIRHFENKFAVETLICYDVML,3.48
5,EASNCFAIRHFENKFAVETLICYDVRLCLYCSRW,4.55
6,EASNCFAIRHFENKFAVETLICYDVWLKEVSSRQ,2.22
7,EASNCFAIRHFENKFAVETLICYDWLVFEDMIFR,inactive
8,EASNCFAIRHFENKFAVETLICYEACL,1.07
9,EASNCFAIRHFENKFAVETLICYECPQYPSLSAK,inactive
10,EASNCFAIRHFENKFAVETLICYEGNQFPVSVRG,inactive
11,EASNCFAIRHFENKFAVETLICYELTSMLDSTSW,inactive
12,EASNCFAIRHFENKFAVETLICYFARIGSIYVLL,-0.482
13,EASNCFAIRHFENKFAVETLICYFATPKHDCQSE,7.07
14,EASNCFAIRHFENKFAVETLICYFAYVWGGYRGL,inactive
15,EASNCFAIRHFENKFAVETLICYFCR,7.25
16,EASNCFAIRHFENKFAVETLICYFGMRCVMSGIT,inactive
17,EASNCFAIRHFENKFAVETLICYFGYANIVRYEN,0.673
18,EASNCFAIRHFENKFAVETLICYFHWDLLNVCGK,3.74
19,EASNCFAIRHFENKFAVETLICYFKGSVNASLSF,5.29
20,EASNCFAIRHFENKFAVETLICYFKT,inactive
21,EASNCFAIRHFENKFAVETLICYFLVIHFSCFKD,inactive
22,EASNCFAIRHFENKFAVETLICYFLYFYVDGWCA,inactive
23,EASNCFAIRHFENKFAVETLICYFMWMYLTNRGT,inactive
24,EASNCFAIRHFENKFAVETLICYFQRSGIYYYGT,inactive
25,EASNCFAIRHFENKFAVETLICYFRMEIMRIVYW,inactive
26,EASNCFAIRHFENKFAVETLICYFSIFV,1.53

# Same assay, conditions: random library (experiment): 3
row,Sequence,amyloid nucleation score
1,EASNCFAIRHFENKFAVETLICYCLVYGIISHER,inactive
2,EASNCFAIRHFENKFAVETLICYCRKRTTAMGT,inactive
3,EASNCFAIRHFENKFAVETLICYCRYV,inactive
4,EASNCFAIRHFENKFAVETLICYCSGIRLVGFMW,inactive
5,EASNCFAIRHFENKFAVETLICYDDPLMLYGKFD,1.3
6,EASNCFAIRHFENKFAVETLICYDFSGLNGPCML,4.11
7,EASNCFAIRHFENKFAVETLICYDGWMMMVDLGR,inactive
8,EASNCFAIRHFENKFAVETLICYDHGQLVSSSDR,inactive
9,EASNCFAIRHFENKFAVETLICYDLLCEQHNGAC,inactive
10,EASNCFAIRHFENKFAVETLICYDQERRAHLLSG,inactive
11,EASNCFAIRHFENKFAVETLICYDYRVVFVGEMV,inactive
12,EASNCFAIRHFENKFAVETLICYEA,inactive
13,EASNCFAIRHFENKFAVETLICYEC,3.9
14,EASNCFAIRHFENKFAVETLICYEQFCI,inactive
15,EASNCFAIRHFENKFAVETLICYETSSCGTKYCF,1.15
16,EASNCFAIRHFENKFAVETLICYFDWKVFSVVRG,inactive
17,EASNCFAIRHFENKFAVETLICYFEIYFIEASFG,0.412
18,EASNCFAIRHFENKFAVETLICYFFPCSRMVCIR,inactive
19,EASNCFAIRHFENKFAVETLICYFRTPGDFGINA,1.69
20,EASNCFAIRHFENKFAVETLICYFSKWNLNAY,inactive
21,EASNCFAIRHFENKFAVETLICYFSQ,8.17
